PubChem BioAssay AID1476 (National Center for Advancing Translational Sciences (NCATS), 2009)
In all, about 200,000 compounds went through this assay and about 4,500 (2.2%) were called active. The inconclusive results got no clear call from the source; some entries with a clear call stand among them for comparison. The call rests on the fitted dose curve; in most records, active means well fitted inhibition curve with a large enough effect; inconclusive means small, poorly fitted or top-dose-only effect, or effect the other way; inactive means flat fitted curve, though single readings scatter. Where the call is inconclusive, the potency comes from a doubtful curve fit.
Further: nearly all actives have a fitted effect of over 40% in size.
Potency means the concentration at half of the fitted maximal effect; tags describe the fitted curve by direction and shape.
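Wherever max response, negative = inhibition is given: plate controls were enzyme without inhibitor for no effect and buffer without enzyme for full effect.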

Each molecule was assayed against Cruzipain (Trypanosoma cruzi) (UniProt P25779) (assay: qHTS Assay for Promiscuous and Specific Inhibitors of Cruzain (without detergent)). Conditions: purified cruzain, Z-FR-AMC fluorescence, no detergent.
UniProt P25779, sequence (P25779 whole entry, looked up): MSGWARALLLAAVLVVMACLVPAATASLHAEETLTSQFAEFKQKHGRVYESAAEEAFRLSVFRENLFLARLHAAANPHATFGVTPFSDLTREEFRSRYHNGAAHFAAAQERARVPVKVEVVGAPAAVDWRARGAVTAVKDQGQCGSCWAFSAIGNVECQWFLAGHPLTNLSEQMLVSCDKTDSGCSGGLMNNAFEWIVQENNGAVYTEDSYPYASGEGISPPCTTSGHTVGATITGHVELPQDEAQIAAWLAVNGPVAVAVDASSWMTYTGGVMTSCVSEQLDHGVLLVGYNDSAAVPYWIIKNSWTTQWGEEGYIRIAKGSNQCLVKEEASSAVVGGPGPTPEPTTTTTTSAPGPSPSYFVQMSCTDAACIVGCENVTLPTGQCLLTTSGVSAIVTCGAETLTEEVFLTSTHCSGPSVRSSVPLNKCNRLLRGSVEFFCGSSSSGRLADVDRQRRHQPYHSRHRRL
How it was run: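 Purified cruzain at 1.5 nM, pre-incubated 15 min with compound at room temperature in 100 mM sodium acetate pH 5.5, 5 mM DTT, 0.00005% Triton X-100. Reaction started with 2 uM Z-FR-AMC; AMC fluorescence increase over 60 s gives rate.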
`COc1ccc(-c2ccc(C#N)c(OC(=O)c3c(Cl)cccc3Cl)n2)cc1` was tested, and the Potency was inconclusive: 31.6 µM [inhibitor, single point].
With `CCOC(=O)c1c(C)[nH]c(C)c1C(=O)CSc1nc2ccccc2c(=O)n1-c1ccc(Cl)cc1` the max response, negative = inhibition was inactive: 10.7%.
In the case of `CCCS(=O)(=O)c1c(S(=O)(=O)CCC)c2cc(CC)ccn2c1C(=O)OC`, the Potency is reported as inconclusive: 25.1 µM [activator, single point].
`Cc1ccc(Nc2c(-c3ccc(N4CCOCC4)cc3)nc3cccc(C)n23)cc1` was tested, and the max response, negative = inhibition was inactive: -4.96%.
For `COc1ccccc1CN1CCCC2(CCN(C(=O)c3ccco3)CC2)C1`, the max response, negative = inhibition was inactive: -8.86%.
With `CCOC(=O)N1CCC(N2Cc3cccc(C(=O)Nc4ccc(CC)cc4)c3C2=O)CC1` the Potency was inconclusive: 25.1 µM [activator, single point].
For `Cc1c(NC(=O)C2CCCN2C(=O)c2cccs2)c(=O)n(-c2ccccc2)n1C` (centres undefined), the Potency was inconclusive: 15.8 µM [inhibitor, partial curve, poor fit].
With `O=C1CSC(c2nn(-c3ccccc3)cc2-c2cc3ccccc3oc2=O)N1Cc1ccco1` (centres undefined) the Potency was inconclusive: 31.6 µM [inhibitor, single point].
For `Cc1ccccc1C(=O)N1CCN(c2ncnc3c2cnn3-c2ccccc2)CC1`, the Potency was inconclusive: 39.8 µM [activator, single point].
For `CCOc1ccc(-n2c(=O)cc(N3CCN(c4ccccc4)CC3)[nH]c2=O)cc1`, the Potency was active: 2 µM.
In the case of `O=C(COC(=O)c1ccc(Br)o1)Nc1nc2ccccc2s1`, the Potency is reported as inconclusive: 15.8 µM [inhibitor, partial curve].
In the case of `N#Cc1c(N2CCOCC2)nc(-c2ccco2)c2c1CCCC2`, the Potency is reported as active: 10 µM.
For `Cc1ccc(NC(=O)Cn2nnc(C(=O)NCCc3ccccc3)c2N)cc1`, the Potency was inconclusive: 39.8 µM [inhibitor, single point].
For `Cc1nn(-c2ccccc2)c(N2CCCC2)c1/C=N/NC(=O)c1cc(-c2cccnc2)nc2ccccc12`, the max response, negative = inhibition was inactive: 24.1%.
`O=C(CCCn1nnc(-c2cccnc2)n1)c1ccc(F)cc1` was tested, and the max response, negative = inhibition was inactive: 0.839%.
With `COc1ccc(Nc2nnc(-c3ccc(C)c(S(=O)(=O)NCc4nc5ccccc5[nH]4)c3)c3ccccc23)cc1` the Potency was inconclusive: 39.8 µM [inhibitor, single point].
In the case of `CCC1CCCCN1C(=O)CSc1nnc(-c2c[nH]c3ccccc23)o1` (centres undefined), the Potency is reported as inconclusive: 31.6 µM [activator, single point].
With `COc1ccccc1/C=C/C=C1N=C(/C=C/c2ccc(Cl)cc2)OC/1=O` the Potency was active: 15.8 µM.
In the case of `Cc1cc(Br)c(OCc2ccc(C(=O)N/N=C3\CC4CC=CC34)cc2)c(Br)c1` (centres undefined), the Potency is reported as active: 20 µM.
For `CC(C)C[C@H](N)c1nnc(S(=O)(=O)Cc2ccc(F)cc2)o1`, the Potency was active: 12.6 µM.
With `CCCCCCCCCCCC(=O)NC(C(=O)OCC)C(O)c1cccc([N+](=O)[O-])c1` (centres undefined) the Potency was inconclusive: 31.6 µM [activator, partial curve].
`Cc1cc(C(=O)CSc2nc3ccccc3[nH]2)c(C)n1Cc1ccco1` was tested, and the Potency was active: 25.1 µM.
In the case of `COc1ccc(N2CCN(c3ncnc4nc[nH]c34)CC2)cc1`, the max response, negative = inhibition is reported as inactive: -7.13%.
For `COc1ccc(C)cc1NC(=O)C(Sc1nnc(Nc2cc(C)ccc2OC)s1)c1ccccc1` (centres undefined), the Potency was inconclusive: 31.6 µM [inhibitor, single point].
`CCN1CCN(C(=O)c2ccc3c(c2)N(Cc2cccc(Cl)c2)C(=O)c2ccccc2S3(=O)=O)CC1` was tested, and the max response, negative = inhibition was inactive: 3.17%.
For `COc1ccc(-c2noc(C3CC(=O)N(c4ccc(C)c(F)c4)C3)n2)c(OC)c1` (centres undefined), the Potency was inconclusive: 31.6 µM [activator, single point].
`CC1CCC(NC(=O)c2ccc3c(c2)N(Cc2cccc(F)c2)C(=O)c2ccccc2S3)CC1` (centres undefined) was tested, and the Potency was inconclusive: 6.31 µM [inhibitor, single point].
`CC(C)CC(=O)OC1C(N2CCOCC2)c2c(ccc(/C=C/C(=O)N3CCOCC3)c2O)OC1(C)C` (centres undefined) was tested, and the Potency was inconclusive: 7.94 µM [activator, full curve].
With `CCOC(=O)c1c(NC(=O)Nc2ccc(Cl)cc2)sc(C)c1C` the Potency was active: 25.1 µM.
With `Cc1cccn2c(=O)c3cc(C(=O)N4CCN(C(=O)c5ccco5)CC4)n(C)c3nc12` the max response, negative = inhibition was inactive: -2.8%.
In the case of `CC(C)c1ccc(NC(=O)C2CCCN(S(=O)(=O)c3ccc(Br)s3)C2)cc1` (centres undefined), the Potency is reported as inconclusive: 25.1 µM [inhibitor, single point].
With `CCOc1cc(NS(=O)(=O)c2ccc(NC(C)=O)cc2)c(OCC)cc1NC(=O)c1cccs1` the Potency was inconclusive: 20 µM [activator, single point].
In the case of `Cc1cc(OCC(=O)c2ccc(Br)cc2)ccc1N1C(=O)CCC1=O`, the Potency is reported as inconclusive: 39.8 µM [activator, single point].
`COc1ccc(OC)c(-c2nc(Nc3ccccc3C)sc2CC(=O)O)c1` was tested, and the Potency was inconclusive: 39.8 µM [inhibitor, single point].
For `Cc1cc(C)n(-c2nc3ccccc3nc2Nc2cccc(C(F)(F)F)c2)n1`, the max response, negative = inhibition was inactive: 8.96%.
For `O=C(CSc1nnc(-c2n[nH]c3ccccc23)n1-c1ccccc1)Nc1ccccc1Cl`, the Potency was inconclusive: 39.8 µM [inhibitor, single point].
With `COc1ccc(-c2nnc(Nc3ccc(OCC(N)=O)cc3)c3ccccc23)cc1` the max response, negative = inhibition was inactive: -3.59%.
With `Cc1cc(C)c2c(CC(=O)Nc3nnc(C(C)C)s3)coc2c1` the Potency was inconclusive: 31.6 µM [inhibitor, single point].
`COc1ccc(NS(=O)(=O)c2ccc3nc(COc4ccc5ccccc5c4)[nH]c3c2)cc1` was tested, and the Potency was inconclusive: 39.8 µM [inhibitor, single point].
With `Cc1cc(C)n(-c2nnc(C)n2/N=C/c2cc(Br)ccc2OCc2ccccc2)n1` the Potency was inconclusive: 25.1 µM [activator, partial curve].
For `COc1ccc(NC(=O)c2oc3c(c2C)-c2nn(Cc4c(F)cccc4Cl)cc2CC3)c(OC)c1`, the max response, negative = inhibition was inactive: -1.16%.
With `CN(C)S(=O)(=O)c1ccc2c(c1)nc1n2CCC1` the max response, negative = inhibition was inactive: -10.8%.
With `COc1ccc(CNc2nc3c(S(=O)(=O)c4ccccc4)nnn3c3ccc(Cl)cc23)cc1` the max response, negative = inhibition was inactive: -4.4%.
With `CCOc1ccc(Nc2oc(/C=C/c3ccc(F)cc3)nc2C#N)cc1` the max response, negative = inhibition was inactive: -13.4%.
In the case of `CC(=O)Nc1nonc1-c1nnc(SCC(=O)Nc2cc(C)ccc2C)n1-c1ccccc1`, the Potency is reported as inconclusive: 31.6 µM [activator, partial curve].
In the case of `Cc1nc2c(sc3nc4c(cc32)COC(C)(C)C4)c(=O)n1Cc1ccccc1`, the Potency is reported as inconclusive: 39.8 µM [activator, single point].
With `COc1cc(C(C)=O)ccc1Oc1ncnc2c1cnn2-c1cccc(Cl)c1` the Potency was inconclusive: 39.8 µM [activator, single point].
With `COc1ccc(S(=O)(=O)N2CCOCC2)cc1NC(=O)CO/N=C/c1ccccc1OC(F)F` the Potency was inconclusive: 25.1 µM [activator, partial curve].
`O=C(c1ccccc1)N1CCC(c2nc(-c3ccc(S(=O)(=O)N4CCOCC4)cc3)no2)CC1` was tested, and the Potency was inconclusive: 39.8 µM [activator, single point].
With `Cc1c(C)c2c(c(C)c1O)CCC(C)(CN1CCN(c3cc(N4CCCC4)nc(N4CCCC4)n3)CC1)O2` (centres undefined) the Potency was inconclusive: 39.8 µM [activator, single point].
In the case of `O=C(Nc1nnc(C2CC2)s1)c1cc(-c2ccccc2)nn1-c1ccccc1`, the Potency is reported as inconclusive: 39.8 µM [inhibitor, single point].
`CCOC(=O)N1CCN(C(=O)c2cn(CC(C)C)c(=O)c3c2c2ccccc2n3C)CC1` was tested, and the Potency was inconclusive: 39.8 µM [activator, single point].
For `COc1cccc2cc(-c3nc4sc(C(=O)Nc5ccc(F)cc5F)c(C)c4c(=O)[nH]3)c(=O)oc12`, the max response, negative = inhibition was inactive: -7.28%.
For `CC(=O)OC1CC2C(C)(C)C(O)CC[C@@]2(C)C2CC[C@@]3(C)C(c4ccoc4)OC(=O)C4O[C@@]43[C@]12C` (some centres undefined), the Potency was inconclusive: 10 µM [activator, partial curve].
`CC(=O)NCCc1nc2ccccc2n1CCCCOc1ccc(Cl)cc1` was tested, and the Potency was inconclusive: 39.8 µM [activator, single point].
For `COc1ccc(-c2cc(C(C)=O)c(C)n2CCC(=O)Nc2cc(C)ccc2OC)cc1`, the Potency was inconclusive: 39.8 µM [activator, single point].
In the case of `CC(C)(C)c1ccc(C(=O)NCC(=O)OCC(=O)c2ccc3c(c2)-c2ccccc2C3)cc1`, the Potency is reported as active: 25.1 µM.
`COc1cccc(CNc2ncnc3onc(-c4ccc(F)cc4)c23)c1` was tested, and the max response, negative = inhibition was inactive: 3.83%.
With `COCc1cc(C)nc2sc3c(c12)NC(c1ccc(NC(C)=O)cc1)N(c1ccc(C)cc1)C3=O` (centres undefined) the Potency was inconclusive: 39.8 µM [activator, single point].
`O=C(Nc1ccc(O)cc1)c1cc(S(=O)(=O)N2CCCC2)ccc1Cl` was tested, and the Potency was inconclusive: 39.8 µM [activator, single point].
`CCOc1cc(/C=N/NC(N)=O)cc(Br)c1OCC(=O)Nc1ccccc1C` was tested, and the Potency was inconclusive: 39.8 µM [activator, single point].
With `Cc1ccc(-c2cc(-c3ccc(Cl)cc3)c(C#N)c(N)n2)o1` the Potency was inconclusive: 39.8 µM [activator, single point].
With `O=C(CSc1nc2cc3ccccc3cc2[nH]1)Nc1cccc(C(F)(F)F)c1` the Potency was inconclusive: 39.8 µM [inhibitor, single point].
For `CN(C(=O)CSc1nc2ncccc2o1)c1ccc(F)cc1`, the max response, negative = inhibition was inactive: 0.644%.
